In PubChem BioAssay AID1508624 (National Center for Advancing Translational Sciences (NCATS), 2021):
Among all 48,000 compounds or so, about 120 (0.25%) were called active. Another 4% or so got no clear call; they are omitted. Calls follow the shape of the dose curve; as a rule, active = well fitted activation curve with a large enough effect; inconclusive = small, poorly fitted or top-dose-only effect, or another doubt; inactive = no such curve, though single readings can be large or run the other way. Some of the results follow.

Assay: Primary qHTS for Identification of Small Molecule Activators of Huntingtin-Antisense Promoter Activity; also: nearly all actives have a fitted effect of over 55% in size
Details: HEK293 HTT-AS promoter firefly luciferase reporter, 24 h; series mostly up to 57.5 µM; activity change, positive = activation: at the top concentration
Procedure, shortened: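 Firefly luciferase readout (Dual-Glo, 10 min RT) after 24 h, 37 °C compound exposure (final up to 57.5 uM) of HEK293 reporter cells cultured 24 h beforehand; PTC124 at 50 uM final as control inhibitor; activity scaled vehicle 0%, zero RLU -100%.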

SMILES | activity change, positive = activation
COc1ccc(CNC(=O)c2cc(=O)[nH]c3ccc(S(=O)(=O)N4CCCC4)cc23)c(OC)c1 | inactive: -10%
CC(=O)c1cccc(NC(=O)C(CC(C)C)NS(=O)(=O)c2ccc3c(c2)CCN3C(C)=O)c1 (centres undefined) | inactive: 2.65%
CCOC(=O)CN(Cc1ccccc1)C(C(=O)NC1CCCCC1)c1ccc(OC)cc1 (centres undefined) | inactive: -27.5%
COc1ccc(Cl)cc1NC(=O)c1ccc2c(c1)CCN2S(C)(=O)=O | inactive: -13.9%
Cc1cc(NC(=O)CSc2nc(-c3ccccc3C)nc3c2c(=O)n(C)c(=O)n3C)no1 | inactive: -3.95%
CCOc1cc(C(=O)Nc2cccc3cccnc23)cc(OCC)c1OCC | inactive: -23%
Cc1c(Cl)cccc1NC(=O)C1CCCN(c2ncnc3onc(C)c23)C1 (centres undefined) | inactive: -9.87%
CCOC(=O)N1CCC(NC(=O)c2cnn(-c3cccc(F)c3)c2-n2cccc2)CC1 | inactive: -19%
NS(=O)(=O)c1ccc(CCNc2ncnc3c2cnn3-c2cccc(Cl)c2)cc1 | inactive: -19.1%
O=C(NCc1ccccc1Cl)c1ccc2c(c1)N(Cc1ccccc1)C(=O)CS2 | inactive: -29.2%
COc1ccc(CCC(=O)NCc2nc3cccnc3n2Cc2ccc(F)cc2)cc1 | inactive: -22.1%
CN(CC(=O)Nc1ccccc1F)S(=O)(=O)c1ccc2c(c1)c(=O)n(C)c(=O)n2C | inactive: -3.17%
CC1CCN(S(=O)(=O)c2ccc3c(c2)c(=O)c(C(=O)NC(C)c2ccccc2)cn3C)CC1 (centres undefined) | inactive: -29%
Cc1ccc(-c2nnc(Nc3cccc(O)c3)c3ccccc23)cc1S(=O)(=O)NCC1CCCO1 (centres undefined) | inactive: -43.4%
Cc1ccc(Cl)cc1N1CCN(C(=O)c2ccc3c(c2)CCN3S(=O)(=O)c2ccccc2)CC1 | inactive: -21.9%
CC(=O)c1cc(-c2ccc(F)cc2)n(CC(=O)NC2CCC(C)CC2)c1C (centres undefined) | inactive: -6.82%
CC(=O)c1cccc(NC(=O)Nc2nnc(N3CCCC3)s2)c1 | inactive: 5.52%
CCOC(=O)c1c(C)n(-c2ccccc2)c2ccc(OC(=O)c3cccc(C)c3)cc12 | inactive: -18.1%
COc1cccc(CNC(=O)c2ccc3c(=O)n4nc(Nc5ccccc5)sc4nc3c2)c1 | inactive: -18.8%
CCCOc1ccc(CNC(=O)c2ccc(C)c(-n3c(C)nc4cccnc43)c2)cc1 | inactive: -7.19%

SMILES | activity change, positive = activation
Cc1oc2ncn(C)c(=O)c2c1C(=O)NCCCN1CCCCC1C (centres undefined) | inactive: -7.81%
O=C(Nc1cccc(C(F)(F)F)c1)N1CC2CCCN2c2ccccc21 (centres undefined) | inactive: -25.7%
COc1ccc(-n2nc(C(=O)Nc3ccc(Cl)cn3)c3c4ccccc4n(C)c3c2=O)cc1 | inactive: 8.84%
Cc1cccc(NC(=O)Cn2nc3c4ccccc4n(Cc4ccccc4)cc-3c2=O)c1 | inactive: -13%
COc1ccc2cc(-c3nnc(Nc4ccccc4)s3)c(=O)oc2c1 | inactive: -3.45%
CCN(CC)C(=O)N1CCN(C)CC1 | inactive: -9.19%
COc1cc(OC)c(N(C)C(=O)c2cn(C3CCCC3)c(=O)c3c2c2ccccc2n3C)cc1Cl | inactive: -30.9%
O=C(O)CCC=CCC[C@@H]1[C@H](N2CCCCC2)[C@@H](O)C[C@@H]1OCc1ccc(-c2ccccc2)cc1 | inactive: -8.52%
Cc1ccc(N2CCN(C(=O)c3cnn(-c4ccc(F)cc4F)c3C3CCN(C(=O)OC(C)(C)C)CC3)CC2)c(C)c1 | inactive: -22.7%
CCN1CCN(C(c2ccc(C)cc2)c2c(O)cc(C)n(Cc3ccco3)c2=O)CC1 (centres undefined) | inactive: 0.762%
CN(Cc1ccccc1)S(=O)(=O)c1ccc2[nH]c3c(c2c1)CCCCC3 | inactive: 16.1% [at 11.5 µM, percent change from vehicle, -100% = no light]
COc1ccc(-n2nc(C(=O)O)c(=O)n(C)c2=O)cc1 | inactive: -2.33%
COc1ccc(-c2cc3nc(C)c(CCC(=O)N4CCN(c5ccc(F)cc5)CC4)c(C)n3n2)c(OC)c1 | inactive: -39.2%
Cc1ccc(Nc2nc3ccccc3c3nnc(C)n23)c(C)c1 | inactive: -12.4%
CCCCN(CCCC)CCNC(=O)CN1C(=O)CSc2ccc(S(=O)(=O)N3CCOCC3)cc21 | inactive: -5.91%
COc1ccccc1OCC(=O)NC1CC(=O)N(c2ccc3c(c2)OCCO3)C1 (centres undefined) | inactive: -10.4%
CC(=O)c1cccc(Nc2cc(C)nc3nc(Cc4ccccc4)nn23)c1 | inactive: -8.43%
COc1ccc(NC(=O)c2c(C)oc3ccc(O)c(CN4CCN(Cc5ccccc5)CC4)c23)cc1Cl | inactive: -34.2%
COc1ccc2c(c1)CCc1c(C(=O)Nc3ccc(OC)cc3OC)noc1-2 | inactive: -12.4%
COc1ccccc1NC(=O)c1sc2nc3n(c(=O)c2c1C)N=C(c1cccc(Br)c1)CS3 | inactive: 1.68%

SMILES | activity change, positive = activation
COc1ccc(OC)c(/C=C(\C#N)c2nc(-c3ccc(F)cc3)cs2)c1 | inactive: -0.847%
COC(=O)c1ccc2c(c1)N(Cc1ccccc1)C(=O)c1ccccc1S2(=O)=O | inactive: -26.3%
COc1ccc(Cn2c(C(=O)O)c(CNC3CCCCC3)c3ccc(C)cc32)cc1 | inactive: -16%
COc1ccc(Cl)cc1NC(=O)CN1Cc2ccccc2C1=O | inactive: -2.77%
Cc1nc(S(=O)(=O)N2CCN(c3ccccc3F)CC2)cn1C | inactive: -5.65%
Nc1c(-c2nc(-c3ccc4c(c3)OCO4)cs2)c2ccccn2c1C(=O)c1ccc(Cl)cc1 | inactive: 3.34%
O=C(O)c1ccc(NC(=O)c2ccc(Br)c(S(=O)(=O)N3CCCC3)c2)cc1 | inactive: -16.2%
CCOc1ccc(NC(=O)Cc2c[nH]c3ccccc23)cc1 | inactive: 23.3%
Cc1ccc(SCc2nc(-c3ccc(C(=O)NCC(C)c4ccccc4)cc3)oc2C)cc1 (centres undefined) | inactive: -14.1%
CCCC12CN3CC(C)(CN(C1)C3c1ccc(OCc3ccccc3)cc1)C2=O (centres undefined) | inactive: 4.14%
CCc1ccc(S(=O)(=O)c2nnn3c2nc(NCc2ccccc2)c2cc(Cl)ccc23)cc1 | inactive: 11.8%
O=C(Nc1ccc(Cl)cc1)c1cc(S(=O)(=O)NC2CCCCCC2)ccc1F | inactive: -31.8%
CCN1C(=O)C(Cc2nc3ccccc3c(=O)n2C)c2cc(C)ccc21 (centres undefined) | inactive: 14.4%
CCCNC(=O)C(Cc1ccccc1)NS(=O)(=O)c1ccc2c(c1)c(=O)n(C)c(=O)n2C (centres undefined) | inactive: -3.39%
O=C(CN1CCN(Cc2ccccc2Cl)C1=O)NCCc1ccc(Cl)cc1 | inactive: -11%
Cc1ccc(-c2csc3ncnc(Nc4ccc(C(=O)O)cc4)c23)cc1 | inactive: -33.7%
COc1cc(NS(=O)(=O)c2ccc(-c3cc(C)no3)cc2)cc(OC)c1 | inactive: -86.8%
COc1ccccc1-c1nc2cc(NC(=O)c3ccccc3Cl)ccc2o1 | inactive: 16.4%
CC1CCN(S(=O)(=O)c2ccc3nc(N4CCN(c5ccc(F)cc5)CC4)ccc3c2)CC1 | inactive: -6.79%
